Among all 52,000 compounds or so, about 1,700 (3.3%) were called active. No stated cut-off is given here; in the data, active means survival mostly below about 52% (no sharp cut-off); inactive means mostly above about 56%. The list shows a part of the results.

Experimental findings from PubChem BioAssay AID463173 (ICCB-Longwood Screening Facility, Harvard Medical School, 2010) are described below.

This test concerns Wild type. Description: S. aureus survival, RN4220 and DeltatarO strains – OD600, teichoic acid synthesis inhibitors, primary screen (AID 463173). The conditions noted are these: S. aureus RN4220 wild type/DeltatarO growth, OD600, 18 h, hits give low values, screened at 18.75 µg/mL (by protocol).
Regarding `COc1cc(/C=C(\C#N)C(=O)Nc2ccc(C)cc2)ccc1OCc1cc(=O)n2nc(C)sc2n1`, the survival is inactive: 81%.
On to `NC(=O)CSc1nnnn1C1CCCCC1`, for which the survival was inactive: 119%.
Then `Cc1ccc(N2CC(NC(=O)c3ccc(S(=O)(=O)N4CCCCC4)cc3)CC2=O)cc1` (centres undefined), with inactive: 71%.
With `COC(=O)c1ccc(NC(=O)c2cc(=O)c3ccc(C)cc3o2)cc1`, the survival is inactive: 107%.
For the molecule `O=c1oc2ccc(Br)cc2cc1-c1csc(-c2ccccc2)n1`, the survival was inactive: 70%.
With `COc1ccc(C/C(N)=N/OC(=O)Cc2ccccc2)cc1`, the survival is inactive: 104%.
The result for `CCOC(=O)c1cc(NC(=O)c2ccc(C)cc2)c(=O)n2c1oc1ccc(Cl)cc12` reads inactive: 77%.
Then `CN(C(=O)C1=CC(c2ccc3c(c2)OCO3)=NS(=O)(=O)N1C)c1ccccc1`, with inactive: 89%.
Then `CCCC(=O)Nc1nnc2n1CCS2`, with inactive: 81%.
As to `O=C(CSc1nc2c(c(=O)[nH]1)CN(Cc1ccc3c(c1)OCO3)CC2)Nc1cccc(Cl)c1`, the survival was inactive: 75%.
Then `Cc1nc2c(c(C)nn2-c2ccccc2)c(C)c1CCC(=O)NCCc1ccccc1`, with inactive: 91%; and `Cn1nnc2c(NCc3ccccc3Cl)ncnc21`, with inactive: 118%; and `CCOC(=O)c1noc2ncnc(N3CCC(C)CC3)c12`, with inactive: 70%.
For the molecule `CCOc1ccc(Oc2nc(NC)nc(N3CCOCC3)n2)nn1`, the survival is inactive: 101%.
Then `COc1ccc(CC(=O)NCc2nc3cccnc3n2Cc2ccc(C)cc2)cc1OC`, with inactive: 71%; and `Cc1cccc(Cn2cc3c(=O)n(CC(=O)Nc4ccc(C)c(F)c4)nc-3c3cc(F)ccc32)c1`, with inactive: 64%.
For the molecule `COc1ccc(S(=O)(=O)N(Cc2ccccc2)Cc2nc3ccccc3c(=O)[nH]2)cc1`, the survival was inactive: 113%.
`COc1cc2nc(C3CCC3)n(NC(=O)C(OC(C)=O)c3ccccc3)c(=O)c2cc1OC` (centres undefined): the survival is inactive: 103%.
The result for `CC(C)N(C(=O)Cn1c(SCC(=O)N2CCOCC2)nc2ccccc21)C(C)C` reads inactive: 93%; that for `COCCN1C(=O)c2[nH]nc(-c3cc(C)ccc3O)c2C1c1ccc(C(C)C)cc1` (centres undefined), active: 11%.
Then `CCc1ccccc1NC(=O)c1cc(S(=O)(=O)N2CCCC2)cn1C`, with inactive: 84%; and `Cc1cccc(N2CCN(C(=O)CCc3c(C)nc4ncnn4c3C)CC2)c1C`, with inactive: 76%; and `Cc1ccc(Cn2c(=O)n(CCCC(=O)NCc3ccccc3Cl)c(=O)c3ccccc32)cc1`, with inactive: 145%.
Then `COc1ccc(OC)c(NC(=O)c2c(NCc3cccs3)sc3c2CCCC3)c1`, with inactive: 95%.
In the case of `COC(=O)c1cnc(N2CCN(c3ccccc3F)CC2)c2ccccc12`, the survival was inactive: 93%.
The result for `Cc1ccc(NC(=O)C2CCN(c3nc4ccccc4[nH]3)CC2)c(C)c1` reads inactive: 101%; that for `COc1ccc(C(=O)N(CC(=O)NC2CCCC2)C2CCCCC2)cc1OC`, inactive: 106%; that for `O=C(Cc1ccccc1)Nc1cccc(-c2cn3cccnc3n2)c1`, inactive: 77%.
`COc1ccccc1NC(=O)NCCN1CCN(c2cccc(Cl)c2)CC1`: the survival is inactive: 90%.
In the case of `CC(C)c1cccc(C(C)C)c1NC1=NS(=O)(=O)c2ccccc21`, the survival is inactive: 66%.
Turning to `COc1cccc(CN(CCCN2CCOCC2)C(=O)c2cc3sccc3n2Cc2ccccc2)c1`, the survival is inactive: 133%.
The result for `O=C(Cn1c(-c2cccs2)cc2ccccc21)NCCc1ccc(Cl)cc1` reads inactive: 124%; that for `CCOc1ccc(S(=O)(=O)Nc2ccc3c(c2)N(C(C)=O)CCC3)cc1`, inactive: 71%.
Take `COC(=O)C(C)Sc1ncnc2c1c(-c1ccccc1)cn2-c1ccc(F)cc1` (centres undefined): the survival was inactive: 89%.
`Cc1cccc(C)c1-n1ncc(C(=O)N2CCN(c3ccccc3)CC2)c1C1CCN(C(=O)OC(C)(C)C)CC1`: the survival was inactive: 83%.
Then `Cc1ccc(CNS(=O)(=O)c2cc3c(cc2C)NC(=O)CO3)cc1`, with inactive: 83%; and `N#CC(Cc1cccnc1)C(=O)Nc1ccccc1` (centres undefined), with inactive: 110%; and `CN(CC(=O)Nc1cccc(C(F)(F)F)c1)S(=O)(=O)c1cccs1`, with inactive: 93%.
Consider `O=C(c1ccc(CSc2nc3ccncc3n2Cc2cccc(F)c2)cc1)N1CCCCCC1`, for which the survival is inactive: 75%.
The result for `Cc1cncn1CCc1nc2c3ccccc3nc(SCC(=O)Nc3cccc(Cl)c3)n2n1` reads inactive: 80%; that for `COc1ccc2c(c1)C(c1ccc(N3CCOCC3)cc1)=NNC(c1cccnc1)=N2`, inactive: 110%; that for `CCOc1ccccc1NC(=O)c1cc2c(=O)oc3ccccc3c2s1`, inactive: 99%.
As for `CCC(Cn1nnc2ccccc2c1=O)NC(=O)Nc1ccc(C)c(C)c1` (centres undefined), the survival is inactive: 90%.
The result for `Cc1ccc(/C=C/c2nc3ccccc3[nH]2)cc1` reads inactive: 60%; that for `CCc1ccc(NC(=O)CCS(=O)(=O)c2ccc3c(c2)n(C)c(=O)c(=O)n3C)cc1`, inactive: 81%.
Then `CC(C)COc1ccc(C(=O)N(Cc2ccc(N(C)C)cc2)Cc2ccco2)cc1`, with inactive: 80%.
Turning to `CC1CCCCN1c1nnc(NC(=O)Nc2ccccc2F)s1` (centres undefined), the survival was inactive: 71%.
Take `CS(=O)(=O)CCC(C(=O)Nc1cccc(C(F)(F)F)c1)N1Cc2ccccc2C1=O` (centres undefined): the survival was active: -1%.
As for `CC1CCCN(C(=O)c2cc3c(Cl)nc4ccccc4c3s2)C1` (centres undefined), the survival is active: -2%.
The result for `O=C(c1ccco1)c1cn(CCOc2ccc(F)cc2)c2ccccc12` reads inactive: 57%; that for `Cc1ccc(OCc2nc3ccccc3n2CCOc2ccc(Cl)cc2)cc1`, active: 26%.
Then `COCCCNC(=O)CSc1nc2cc(OC)c(OC)cc2c2nc(-c3ccccc3)nn12`, with inactive: 71%; and `CC(C)c1ccc(NC(=O)Cn2c(=O)n(CCc3ccccc3)c(=O)c3ccccc32)cc1`, with inactive: 97%.
Then `CCc1cccc(CC)c1NC(=O)CN1C(=O)C(=O)c2ccccc21`, with inactive: 88%.
With `Cc1ccc(Nc2nnc(-c3ccc(C)c(S(=O)(=O)NCc4nc5ccccc5[nH]4)c3)c3ccccc23)cc1`, the survival is inactive: 90%.
As for `COc1ccc2[nH]c(=O)c(CN(Cc3cccs3)C(=O)c3cccs3)cc2c1`, the survival was inactive: 122%.
Regarding `Cc1ccc(-c2nc(SCC(=O)NCc3ccco3)c3c(=O)n(C)c(=O)n(C)c3n2)cc1`, the survival is inactive: 77%.
`Cc1ccc(-c2nnc(Nc3cccc(O)c3)c3ccccc23)cc1S(=O)(=O)N1CCN(C)CC1`: the survival was inactive: 70%.
For `Cc1ccccc1OCC(O)Cn1c(=N)n(CCN2CCCCC2)c2ccccc21` (centres undefined), the survival was inactive: 76%.
Take `Cc1ccc(C(=O)Nc2cccc(-c3nc4ccccc4o3)c2)c(Cl)c1`: the survival is inactive: 70%.
The result for `CCc1ccc(NC(=O)C(CC)n2c(=O)c(C(F)(F)F)nc3ccccc32)cc1` (centres undefined) reads inactive: 81%; that for `Cc1ccc(NC(=O)CC(C)S(=O)(=O)c2ccc3c(c2)NC(=O)CO3)cc1Cl` (centres undefined), inactive: 51%; that for `Cc1nc2nc(SCC(=O)NCc3ccccc3Cl)nn2c(C)c1Cc1ccccc1`, inactive: 68%.
Then `COc1cc(NS(=O)(=O)c2ccc3[nH]c4c(c3c2)CCCCCC4)cc(OC)c1`, with inactive: 57%; and `CCOC(=O)Cn1c(=O)c2c(nc3n2CCN3c2ccc(CC)cc2)n(C)c1=O`, with inactive: 88%; and `COc1cc(Cl)c(C)cc1Nc1ncnc2c1nc1n2CCCC1`, with inactive: 100%.
The result for `CCc1nc(-c2cc(S(=O)(=O)N3CCN(c4ccccc4OC)CC3)ccc2OC)no1` reads inactive: 69%; that for `Cc1ccc(-c2nnc(Nc3ccc(O)cc3)c3ccccc23)cc1S(=O)(=O)N1CCOCC1`, inactive: 82%.
In the case of `COc1ccc(-c2cc(C(=O)Nc3c(C)nn(Cc4ccc(C)cc4)c3C)no2)cc1OC`, the survival is inactive: 72%.
Then `COc1ccc(Cl)cc1NC(=O)CN1C(=O)COc2ccc(S(=O)(=O)NC3CCCC3)cc21`, with inactive: 88%.
As to `Cc1ccc(Nc2nn3c(=O)c4cc5c(cc4nc3s2)OCO5)cc1Cl`, the survival is inactive: 62%.
Then `CCOC(=O)c1cc(-c2ccccc2)n(-c2cccc(C(=O)Nc3ccc(OCC)cc3)c2)c1C`, with active: 10%; and `CC(=O)N1CCCc2cc(S(=O)(=O)N3CCC(C(=O)NCc4cccc(C)c4)CC3)ccc21`, with inactive: 83%; and `COc1cccc(Cn2c(=O)n(Cc3ccco3)c(=O)c3oc4ccccc4c32)c1`, with inactive: 81%.
Take `CCCCN(CC)CCNC(=O)Cn1cc2c(n1)-c1c(oc(C(=O)N3CCCC3)c1C)CC2`: the survival was inactive: 90%.
Consider `CN(C(=O)CSc1cn(CC(=O)N2CCOCC2)c2ccccc12)c1ccccc1`, for which the survival was inactive: 92%.
Then `CCCOc1cccc(C(=O)N(Cc2ccc(C)o2)C2CCS(=O)(=O)C2)c1` (centres undefined), with inactive: 88%; and `CCOC(=O)c1cc2c(=O)n3ccccc3nc2n(CC(C)C)c1=NC(=O)c1c(-c2c(F)cccc2Cl)noc1C`, with inactive: 147%.
As to `CCCN(C(=O)c1noc2c1COc1ccc(C)cc1-2)c1ccc(Cl)c(Cl)c1`, the survival is inactive: 117%.
The result for `COc1cc(NC(=O)CC2C(=O)N(c3cccc(C)c3)C(=O)N2Cc2ccc(F)cc2)cc(OC)c1` (centres undefined) reads inactive: 83%; that for `COCCNc1sc(S(=O)(=O)c2ccc(C)cc2)nc1S(=O)(=O)c1ccc(C)cc1`, inactive: 118%; that for `CC(=O)Nc1ccc(NC(=O)CSc2nccn2C)cc1`, inactive: 67%.
The result for `CC(C)NC(=O)CSc1nc2ccccc2[nH]1` reads inactive: 108%; that for `C=CCc1c(C)[nH]c(=S)[nH]c1=S`, inactive: 105%.
As for `COC(=O)c1ccccc1NC(=O)c1c(NC(=O)c2ccco2)sc2c1CCC(C(C)(C)C)C2` (centres undefined), the survival was inactive: 110%.
`COc1ccccc1OCC(=O)NCC(c1ccc(Cl)cc1)N1CCCCC1` (centres undefined): the survival was inactive: 75%.
Take `COc1cccc(CNC(=O)C(=O)Nc2c3c(nn2-c2ccccc2)CSC3)c1`: the survival is inactive: 66%.
Take `CCN(C(=O)C1CCN(S(=O)(=O)c2ccc3c(c2)CCCN3C(C)=O)CC1)c1cccc(C)c1`: the survival was inactive: 78%.
Then `Cc1ccc2oc3c(c(=O)c2c1)C(c1ccc(F)cc1)N(Cc1ccc2c(c1)OCO2)C3=O` (centres undefined), with inactive: 75%.
